± gives the standard deviation of the averaged measurements. Laboratory Escherichia coli strains with one amino-acid change in an essential protein, pooled on minimal glucose agar with carbenicillin or gentamicin at twice the control MIC (plus kanamycin and chloramphenicol for the plasmids), 48 h. Fold change of barcode share against drug-free plates; higher = less susceptible. Active = above 20 in both replicates (the paper's putatively resistant). '<' = one read or none on drug, '>' = one read or none on a drug-free plate. Shares are relative, so most strains fall below 1 when a few take over. Listed are strains with at least 15 reads on both drug-free plates, and hits; most hits rest on fewer reference reads. Replicate rank correlation about 0.5. Edits are read from barcodes.

The target in this data set is Escherichia coli (laboratory strain). Briefly: barcode share on antibiotic plates over drug-free plates; higher = less susceptible. The procedure:
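A pool of E. coli strains, each edited to carry one amino-acid change in an essential protein, was grown for 48 h on minimal glucose agar with or without antibiotic; strain barcodes were sequenced; mean of two replicates.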

[1] abbreviates: antibiotic: carbenicillin, 2× MIC (3.1 µg/mL).
[2] abbreviates: antibiotic: gentamicin, 2× MIC (MIC 0.45 µg/mL).

B1: asd I110A (protein)
chain: MKNVGFIGWRGMVGSVLMQRMVEERDFDAIRPVFFSTSQLGQAAPSFGGTTGTLQDAFDLEALKALDIIVTCQGGDYTNEIYPKLRESGWQGYWIDAASSLRMKDDAIIALDPVNQDVITDGLNNGIRTFVGGNCTVSLMLMSLGGLFANDLVDWVSVATYQAASGGGARHMRELLTQMGHLYGHVADELATPSSAILDIERKVTTLTRSGELPVDNFGVPLAGSLIPWIDKQLDNGQSREEWKGQAETNKILNTSSVIPVDGLCVRVGALRCHSQAFTIKLKKDVSIPTVEELLAAHNPWAKVVPNDREITMRELTPAAVTGTLTTPVGRLRKLNMGPEFLSAFTVGDQLLWGAAEPLRRMLRQLA
With B1, the “fold change of barcode share” value was 0.34 ± 0.078 under setting [1] and 0.00569 ± 0.0064 under setting [2].

B2: mukF L32A (protein)
chain: MSEFSQTVPELVAWARKNDFSISLPVDRLSFALAVATLNGERLDGEMSEGELVDAFRHVSDAFEQTSETIGVRANNAINDMVRQRLLNRFTSEQAEGNAIYRLTPLGIGITDYYIRQREFSTLRLSMQLSIVAGELKRAADAAEEGGDEFHWHRNVYAPLKYSVAEIFDSIDLTQRLMDEQQQQVKDDIAQLLNKDWRAAISSCELLLSETSGTLRELQDTLEAAGDKLQANLLRIQDATMTHDDLHFVDRLVFDLQSKLDRIISWGQQSIDLWIGYDRHVHKFIRTAIDMDKNRVFAQRLRQSVQTYFDEPWALTYANADRLLDMRDEEMALRDEEVTGELPEDLEYEEFNEIREQLAAIIEEQLAVYKTRQVPLDLGLVVREYLSQYPRARHFDVARIVIDQAVRLGVAQADFTGLPAKWQPINDYGAKVQAHVIDKY
B2: the “fold change of barcode share” value by setting is: under setting [1], 0.221 ± 0.05; under setting [2], 0.00517 ± 0.0035.

B3: mukF V35A (protein)
chain: MSEFSQTVPELVAWARKNDFSISLPVDRLSFLLAAATLNGERLDGEMSEGELVDAFRHVSDAFEQTSETIGVRANNAINDMVRQRLLNRFTSEQAEGNAIYRLTPLGIGITDYYIRQREFSTLRLSMQLSIVAGELKRAADAAEEGGDEFHWHRNVYAPLKYSVAEIFDSIDLTQRLMDEQQQQVKDDIAQLLNKDWRAAISSCELLLSETSGTLRELQDTLEAAGDKLQANLLRIQDATMTHDDLHFVDRLVFDLQSKLDRIISWGQQSIDLWIGYDRHVHKFIRTAIDMDKNRVFAQRLRQSVQTYFDEPWALTYANADRLLDMRDEEMALRDEEVTGELPEDLEYEEFNEIREQLAAIIEEQLAVYKTRQVPLDLGLVVREYLSQYPRARHFDVARIVIDQAVRLGVAQADFTGLPAKWQPINDYGAKVQAHVIDKY
As to B3, the “fold change of barcode share” value is 0.264 ± 0.03 under setting [1] and < 0.00191 under setting [2].

B4: mukF L33W (protein)
chain: MSEFSQTVPELVAWARKNDFSISLPVDRLSFLWAVATLNGERLDGEMSEGELVDAFRHVSDAFEQTSETIGVRANNAINDMVRQRLLNRFTSEQAEGNAIYRLTPLGIGITDYYIRQREFSTLRLSMQLSIVAGELKRAADAAEEGGDEFHWHRNVYAPLKYSVAEIFDSIDLTQRLMDEQQQQVKDDIAQLLNKDWRAAISSCELLLSETSGTLRELQDTLEAAGDKLQANLLRIQDATMTHDDLHFVDRLVFDLQSKLDRIISWGQQSIDLWIGYDRHVHKFIRTAIDMDKNRVFAQRLRQSVQTYFDEPWALTYANADRLLDMRDEEMALRDEEVTGELPEDLEYEEFNEIREQLAAIIEEQLAVYKTRQVPLDLGLVVREYLSQYPRARHFDVARIVIDQAVRLGVAQADFTGLPAKWQPINDYGAKVQAHVIDKY
Consider B4, for which the “fold change of barcode share” value reads like this: under setting [1], 0.208 ± 0.034; under setting [2], < 0.00205.

B5: mukF L33A (protein)
chain: MSEFSQTVPELVAWARKNDFSISLPVDRLSFLAAVATLNGERLDGEMSEGELVDAFRHVSDAFEQTSETIGVRANNAINDMVRQRLLNRFTSEQAEGNAIYRLTPLGIGITDYYIRQREFSTLRLSMQLSIVAGELKRAADAAEEGGDEFHWHRNVYAPLKYSVAEIFDSIDLTQRLMDEQQQQVKDDIAQLLNKDWRAAISSCELLLSETSGTLRELQDTLEAAGDKLQANLLRIQDATMTHDDLHFVDRLVFDLQSKLDRIISWGQQSIDLWIGYDRHVHKFIRTAIDMDKNRVFAQRLRQSVQTYFDEPWALTYANADRLLDMRDEEMALRDEEVTGELPEDLEYEEFNEIREQLAAIIEEQLAVYKTRQVPLDLGLVVREYLSQYPRARHFDVARIVIDQAVRLGVAQADFTGLPAKWQPINDYGAKVQAHVIDKY
Regarding B5, the “fold change of barcode share” value reads like this: under setting [1], 0.207 ± 0.028; under setting [2], < 0.0046.

B6: mukF L33Q (protein)
chain: MSEFSQTVPELVAWARKNDFSISLPVDRLSFLQAVATLNGERLDGEMSEGELVDAFRHVSDAFEQTSETIGVRANNAINDMVRQRLLNRFTSEQAEGNAIYRLTPLGIGITDYYIRQREFSTLRLSMQLSIVAGELKRAADAAEEGGDEFHWHRNVYAPLKYSVAEIFDSIDLTQRLMDEQQQQVKDDIAQLLNKDWRAAISSCELLLSETSGTLRELQDTLEAAGDKLQANLLRIQDATMTHDDLHFVDRLVFDLQSKLDRIISWGQQSIDLWIGYDRHVHKFIRTAIDMDKNRVFAQRLRQSVQTYFDEPWALTYANADRLLDMRDEEMALRDEEVTGELPEDLEYEEFNEIREQLAAIIEEQLAVYKTRQVPLDLGLVVREYLSQYPRARHFDVARIVIDQAVRLGVAQADFTGLPAKWQPINDYGAKVQAHVIDKY
Regarding B6, the “fold change of barcode share” value is 0.421 ± 0.015 under setting [1] and 0.0118 ± 0.0085 under setting [2].

B7: mukE I98W (protein)
chain: MSSTNIEQVMPVKLAQALANPLFPALDSALRSGRHIGLDELDNHAFLMDFQEYLEEFYARYNVELIRAPEGFFYLRPRSTTLIPRSVLSELDMMVGKWLCYLYLSPERLANEGIFTQQELYDELLTLADEAKLLKLVNNRSTGSDVDRQKLQEKVRSSLNRLRRLGMVWFMGHDSSKFRITESVFRFGADVRAGDDPREAQRRLIRDGEAMPIENHLQLNDETEENQPDSGEEE
Take B7: the “fold change of barcode share” value runs as follows: under setting [1], 0.272 ± 0.14; under setting [2], < 0.0117.

B8: mukE L109D (protein)
chain: MSSTNIEQVMPVKLAQALANPLFPALDSALRSGRHIGLDELDNHAFLMDFQEYLEEFYARYNVELIRAPEGFFYLRPRSTTLIPRSVLSELDMMVGKILCYLYLSPERDANEGIFTQQELYDELLTLADEAKLLKLVNNRSTGSDVDRQKLQEKVRSSLNRLRRLGMVWFMGHDSSKFRITESVFRFGADVRAGDDPREAQRRLIRDGEAMPIENHLQLNDETEENQPDSGEEE
As to B8, the “fold change of barcode share” value under setting [1] worked out at 0.378 ± 0.17 and the “fold change of barcode share” value under setting [2] was < 0.00366.

B9: mukE I98D (protein)
chain: MSSTNIEQVMPVKLAQALANPLFPALDSALRSGRHIGLDELDNHAFLMDFQEYLEEFYARYNVELIRAPEGFFYLRPRSTTLIPRSVLSELDMMVGKDLCYLYLSPERLANEGIFTQQELYDELLTLADEAKLLKLVNNRSTGSDVDRQKLQEKVRSSLNRLRRLGMVWFMGHDSSKFRITESVFRFGADVRAGDDPREAQRRLIRDGEAMPIENHLQLNDETEENQPDSGEEE
Regarding B9, the “fold change of barcode share” value under setting [1] was 0.226 ± 0.046.

B10: mukE V184Q (protein)
chain: MSSTNIEQVMPVKLAQALANPLFPALDSALRSGRHIGLDELDNHAFLMDFQEYLEEFYARYNVELIRAPEGFFYLRPRSTTLIPRSVLSELDMMVGKILCYLYLSPERLANEGIFTQQELYDELLTLADEAKLLKLVNNRSTGSDVDRQKLQEKVRSSLNRLRRLGMVWFMGHDSSKFRITESQFRFGADVRAGDDPREAQRRLIRDGEAMPIENHLQLNDETEENQPDSGEEE
As to B10, the “fold change of barcode share” value is, setting by setting: under setting [1], 0.167 ± 0.072; under setting [2], < 0.00594.

B11: mukE I98Q (protein)
chain: MSSTNIEQVMPVKLAQALANPLFPALDSALRSGRHIGLDELDNHAFLMDFQEYLEEFYARYNVELIRAPEGFFYLRPRSTTLIPRSVLSELDMMVGKQLCYLYLSPERLANEGIFTQQELYDELLTLADEAKLLKLVNNRSTGSDVDRQKLQEKVRSSLNRLRRLGMVWFMGHDSSKFRITESVFRFGADVRAGDDPREAQRRLIRDGEAMPIENHLQLNDETEENQPDSGEEE
With B11, the “fold change of barcode share” value was 0.184 ± 0.051 under setting [1] and < 0.013 under setting [2].

B12: mukE L109W (protein)
chain: MSSTNIEQVMPVKLAQALANPLFPALDSALRSGRHIGLDELDNHAFLMDFQEYLEEFYARYNVELIRAPEGFFYLRPRSTTLIPRSVLSELDMMVGKILCYLYLSPERWANEGIFTQQELYDELLTLADEAKLLKLVNNRSTGSDVDRQKLQEKVRSSLNRLRRLGMVWFMGHDSSKFRITESVFRFGADVRAGDDPREAQRRLIRDGEAMPIENHLQLNDETEENQPDSGEEE
On to B12, for which the “fold change of barcode share” value was 0.257 ± 0.085 under setting [1] and < 0.00525 under setting [2].

B13: mukE V184P (protein)
chain: MSSTNIEQVMPVKLAQALANPLFPALDSALRSGRHIGLDELDNHAFLMDFQEYLEEFYARYNVELIRAPEGFFYLRPRSTTLIPRSVLSELDMMVGKILCYLYLSPERLANEGIFTQQELYDELLTLADEAKLLKLVNNRSTGSDVDRQKLQEKVRSSLNRLRRLGMVWFMGHDSSKFRITESPFRFGADVRAGDDPREAQRRLIRDGEAMPIENHLQLNDETEENQPDSGEEE
As for B13, the “fold change of barcode share” value was 0.255 ± 0.037 under setting [1] and < 0.00591 under setting [2].

B14: mukE L109A (protein)
chain: MSSTNIEQVMPVKLAQALANPLFPALDSALRSGRHIGLDELDNHAFLMDFQEYLEEFYARYNVELIRAPEGFFYLRPRSTTLIPRSVLSELDMMVGKILCYLYLSPERAANEGIFTQQELYDELLTLADEAKLLKLVNNRSTGSDVDRQKLQEKVRSSLNRLRRLGMVWFMGHDSSKFRITESVFRFGADVRAGDDPREAQRRLIRDGEAMPIENHLQLNDETEENQPDSGEEE
On to B14, for which the “fold change of barcode share” value by setting is: under setting [1], 0.244 ± 0.0078; under setting [2], < 0.00529.

B15: mukE V184A (protein)
chain: MSSTNIEQVMPVKLAQALANPLFPALDSALRSGRHIGLDELDNHAFLMDFQEYLEEFYARYNVELIRAPEGFFYLRPRSTTLIPRSVLSELDMMVGKILCYLYLSPERLANEGIFTQQELYDELLTLADEAKLLKLVNNRSTGSDVDRQKLQEKVRSSLNRLRRLGMVWFMGHDSSKFRITESAFRFGADVRAGDDPREAQRRLIRDGEAMPIENHLQLNDETEENQPDSGEEE
As for B15, the “fold change of barcode share” value turned out to be 0.183 ± 0.062 under setting [1] and 0.0136 ± 0.012 under setting [2].

For the origin of these results see the supplement of paper PMC11876631.
